Assay results reported in the supplement of paper PMC4967469.
A lower IC50 marks a more sensitive line; a limit (>, <) means that the fit lies beyond the doses tested. AUC is the area under the same curve over the 256-fold range up to the top dose, as a fraction: 1 means no effect, lower means more sensitive. For part of these data: An inferred top dose was calculated from the reported fits. For part of these data: Where an entry number is given, a second screen of the drug exists; the two often differ.

Key:
Test in all cases: Viability of human cancer cell lines after 72 h of drug (GDSC screen)
NSC-207895 = compound: CN1CCN(c2ccc([N+](=O)[O-])c3no[n+]([O-])c23)CC1 [NSC-207895]; conditions: top dose 20 µM; top dose inferred
Protocol: (§1)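 Human cancer cell lines in 384-well plates, medium with 10% serum, drug for 72 h over a 256-fold dose range (nine 2-fold or five 4-fold steps up to the top dose). Adherent lines were fixed and stained with the nucleic acid dye Syto60, suspension lines read with resazurin; signal relative to control wells, capped at 0 and 100%. One two-parameter sigmoid per drug and line, fitted in a mixed model over all curves with the slope shared within a line.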

JQ1 = compound: Cc1sc2c(c1C)C(c1ccc(Cl)cc1)=N[C@@H](CC(=O)OC(C)(C)C)c1nnc(C)n1-2 [JQ1]
Protocol: as §1

OSI-906 = compound: C[C@]1(O)C[C@@H](c2nc(-c3ccc4ccc(-c5ccccc5)nc4c3)c3c(N)nccn32)C1 [OSI-906]; conditions: top dose 2.56 µM; top dose inferred
Protocol: as §1

SB-715992 = compound: Cc1ccc(C(=O)N(CCCN)[C@@H](c2nc3cc(Cl)ccc3c(=O)n2Cc2ccccc2)C(C)C)cc1 [SB-715992]; conditions: top dose 0.128 µM; top dose inferred
Protocol: as §1

FTI-277 = compound: COC(=O)[C@H](CCSC)NC(=O)c1ccc(NC[C@@H](N)CS)cc1-c1ccccc1 [FTI-277]; conditions: top dose 1.024 µM; top dose inferred
Protocol: as §1

AMG-706 = compound: CC1(C)CNc2cc(NC(=O)c3cccnc3NCc3ccncc3)ccc21 [AMG-706]; conditions: top dose 2 µM; top dose inferred
Protocol: as §1

YM155 = compound: COCC[n+]1c2c(n(Cc3cnccn3)c1C)C(=O)c1ccccc1C2=O [YM155]; conditions: top dose 5.12 µM
Protocol: as §1

Belinostat = compound: O=C(/C=C/c1cccc(S(=O)(=O)Nc2ccccc2)c1)NO [Belinostat]; conditions: top dose 20 µM; top dose inferred
Protocol: as §1

JNJ-26854165 = compound: c1ccc2c(CCNc3ccc(Nc4ccncc4)cc3)c[nH]c2c1 [JNJ-26854165]; conditions: top dose 10 µM
Protocol: as §1

JNK Inhibitor VIII = compound: CCOc1nc(NC(=O)Cc2cc(OC)ccc2OC)cc(N)c1C#N [JNK Inhibitor VIII]; conditions: top dose 10 µM; top dose inferred
Protocol: as §1

[1] = top dose 1 µM, screen: GDSC drug entry 1218, top dose inferred
[2] = top dose 2.56 µM, screen: GDSC drug entry 163

Cell Line | AUC (NSC-207895) | IC50 (NSC-207895) [µM] | AUC (JQ1; [1]) | IC50 (JQ1; [1]) [µM] | AUC (JQ1; [2]) | IC50 (JQ1; [2]) [µM] | AUC (OSI-906) | IC50 (OSI-906) [µM] | AUC (SB-715992) | IC50 (SB-715992) [µM] | AUC (FTI-277) | IC50 (FTI-277) [µM] | AUC (AMG-706) | IC50 (AMG-706) [µM] | AUC (YM155) | IC50 (YM155) [µM] | AUC (Belinostat) | IC50 (Belinostat) [µM] | AUC (JNJ-26854165) | IC50 (JNJ-26854165) [µM] | AUC (JNK Inhibitor VIII) | IC50 (JNK Inhibitor VIII) [µM]
786-0 (kidney, adherent) | 0.842 | 12.4 | 0.987 | > 1 | 0.432 | 0.106 | 0.945 | > 2.56 | 0.592 | 0.014 | 0.988 | > 1.02 | 0.975 | > 2 | 0.021 | < 0.02 | 0.399 | 0.677 | 0.679 | 1.88 | 0.978 | > 10
8505C (thyroid, adherent) | 0.692 | 4.49 | 0.983 | > 1 | 0.701 | 0.612 | 0.953 | > 2.56 | 0.925 | > 0.128 | 0.967 | > 1.02 | 0.945 | > 2 | 0.07 | < 0.02 | 0.424 | 0.764 | 0.831 | 6.86 | 0.935 | > 10
23132-87 (stomach, adherent) | 0.881 | > 20 | 0.985 | > 1 | 0.867 | 2.45 | 0.961 | > 2.56 | 0.845 | 0.0977 | 0.976 | > 1.02 | 0.944 | > 2 | 0.212 | 0.0438 | 0.404 | 0.677 | 0.887 | > 10 | 0.985 | > 10
A172 (glioma, adherent) | 0.982 | > 20 | 0.986 | > 1 | 0.899 | > 2.56 | 0.894 | > 2.56 | 0.961 | > 0.128 | 0.953 | > 1.02 | 0.979 | > 2 | 0.284 | 0.0804 | 0.481 | 1.11 | 0.861 | 7.97 | 0.983 | > 10
A427 (non-small cell lung carcinoma, adherent) | 0.871 | 19.1 | 0.985 | > 1 | 0.751 | 0.849 | 0.888 | > 2.56 | 0.94 | > 0.128 | 0.983 | > 1.02 | 0.979 | > 2 | 0.106 | < 0.02 | 0.758 | 7.02 | 0.856 | 8.2 | 0.981 | > 10
A2780 (ovary, semi-adherent) | 0.918 | > 20 | 0.983 | > 1 | 0.708 | 0.634 | 0.919 | > 2.56 | 0.573 | 0.0128 | 0.932 | > 1.02 | 0.971 | > 2 | 0.058 | < 0.02 | 0.341 | 0.446 | 0.872 | > 10 | 0.964 | > 10
AGS (stomach, adherent) | 0.836 | 11.4 | – | – | 0.718 | 0.613 | 0.988 | > 2.56 | 0.904 | > 0.128 | 0.97 | > 1.02 | 0.99 | > 2 | 0.046 | < 0.02 | 0.395 | 0.666 | 0.8 | 4.28 | 0.99 | > 10
ASH-3 (thyroid, adherent) | 0.946 | > 20 | 0.987 | > 1 | 0.779 | 1.04 | 0.925 | > 2.56 | 0.985 | > 0.128 | 0.988 | > 1.02 | 0.983 | > 2 | 0.445 | 0.226 | 0.939 | > 20 | 0.945 | > 10 | 0.981 | > 10
BCPAP (thyroid, adherent) | 0.854 | 13.5 | 0.988 | > 1 | 0.676 | 0.47 | 0.959 | > 2.56 | 0.98 | > 0.128 | 0.973 | > 1.02 | 0.974 | > 2 | 0.054 | < 0.02 | 0.274 | 0.308 | 0.892 | 9.82 | 0.973 | > 10
BHY (head and neck, adherent) | 0.939 | > 20 | 0.961 | > 1 | 0.62 | 0.344 | 0.937 | > 2.56 | 0.805 | 0.0649 | 0.94 | > 1.02 | 0.986 | > 2 | 0.037 | < 0.02 | 0.372 | 0.555 | 0.924 | > 10 | 0.924 | > 10
BPH-1 (prostate, adherent) | 0.896 | > 20 | 0.961 | > 1 | 0.335 | 0.0525 | 0.914 | > 2.56 | 0.543 | 0.0106 | 0.934 | > 1.02 | 0.915 | > 2 | 0.04 | < 0.02 | 0.22 | 0.171 | 0.837 | 7.7 | 0.944 | > 10
C32 (melanoma, adherent) | 0.984 | > 20 | 0.985 | > 1 | 0.986 | > 2.56 | 0.982 | > 2.56 | 0.951 | > 0.128 | 0.985 | > 1.02 | 0.9 | > 2 | 0.655 | 0.888 | 0.85 | 16.8 | 0.851 | 8.44 | 0.939 | > 10
CAL-12T (non-small cell lung carcinoma, adherent) | 0.849 | 17.9 | 0.981 | > 1 | 0.91 | > 2.56 | 0.82 | 1.71 | 0.717 | 0.0357 | 0.966 | > 1.02 | 0.98 | > 2 | 0.066 | < 0.02 | 0.493 | 1.2 | 0.967 | > 10 | 0.983 | > 10
CAL-54 (kidney, adherent) | 0.956 | > 20 | 0.981 | > 1 | 0.84 | 2.14 | 0.912 | > 2.56 | 0.969 | > 0.128 | 0.984 | > 1.02 | 0.985 | > 2 | 0.831 | 3.9 | 0.623 | 2.87 | 0.875 | > 10 | 0.965 | > 10
CAL-120 (breast, adherent) | 0.839 | 19.8 | 0.974 | > 1 | 0.77 | 1.26 | 0.962 | > 2.56 | 0.962 | > 0.128 | 0.937 | > 1.02 | 0.949 | > 2 | 0.088 | < 0.02 | 0.534 | 1.59 | 0.86 | > 10 | 0.976 | > 10
CHL-1 (melanoma, adherent) | 0.837 | 12.3 | 0.983 | > 1 | 0.477 | 0.139 | 0.981 | > 2.56 | 0.878 | 0.117 | 0.978 | > 1.02 | 0.984 | > 2 | 0.024 | < 0.02 | 0.214 | 0.192 | 0.909 | > 10 | 0.946 | > 10
COR-L23 (large cell lung carcinoma, adherent) | 0.983 | > 20 | 0.967 | > 1 | 0.881 | > 2.56 | 0.966 | > 2.56 | 0.73 | 0.0353 | 0.964 | > 1.02 | 0.963 | > 2 | 0.05 | < 0.02 | 0.383 | 0.602 | 0.849 | 7.2 | 0.956 | > 10
ChaGo-K-1 (non-small cell lung carcinoma, adherent) | 0.984 | > 20 | 0.983 | > 1 | 0.846 | 2.33 | 0.943 | > 2.56 | 0.841 | 0.111 | 0.98 | > 1.02 | 0.887 | > 2 | 0.182 | 0.0292 | 0.629 | 3 | 0.902 | > 10 | 0.95 | > 10
Detroit562 (head and neck, adherent) | 0.985 | > 20 | 0.987 | > 1 | 0.715 | 0.629 | 0.988 | > 2.56 | 0.963 | > 0.128 | 0.965 | > 1.02 | 0.984 | > 2 | 0.284 | 0.0803 | 0.788 | 8.39 | 0.863 | 8.1 | 0.985 | > 10
EBC-1 (lung squamous cell carcinoma, adherent) | 0.978 | > 20 | 0.978 | > 1 | 0.538 | 0.205 | 0.975 | > 2.56 | 0.781 | 0.0601 | 0.937 | > 1.02 | 0.982 | > 2 | 0.173 | 0.0277 | 0.641 | 3.23 | 0.81 | 6.1 | 0.958 | > 10
NCI-H460 (large cell lung carcinoma, adherent) | 0.99 | > 20 | – | – | – | – | 0.988 | > 2.56 | 0.99 | > 0.128 | 0.967 | > 1.02 | 0.99 | > 2 | 0.489 | 0.299 | 0.896 | > 20 | 0.896 | > 10 | 0.99 | > 10
NCI-H522 (lung adenocarcinoma, adherent) | 0.984 | > 20 | – | – | – | – | 0.874 | > 2.56 | 0.742 | 0.0457 | 0.972 | > 1.02 | 0.982 | > 2 | 0.221 | 0.0409 | 0.327 | 0.374 | 0.936 | > 10 | 0.975 | > 10
SK-MEL-28 (melanoma, adherent) | 0.904 | > 20 | – | – | – | – | 0.965 | > 2.56 | 0.975 | > 0.128 | 0.987 | > 1.02 | 0.97 | > 2 | 0.069 | < 0.02 | 0.631 | 2.86 | 0.869 | 8.89 | 0.988 | > 10
SW1783 (glioma, adherent) | 0.991 | > 20 | – | – | – | – | 0.939 | > 2.56 | 0.991 | > 0.128 | 0.916 | > 1.02 | 0.981 | > 2 | 0.373 | 0.149 | 0.519 | 1.4 | 0.881 | 8.66 | 0.988 | > 10
T47D (breast, adherent) | 0.893 | > 20 | – | – | – | – | 0.962 | > 2.56 | 0.849 | > 0.128 | 0.965 | > 1.02 | 0.962 | > 2 | 0.348 | 0.0969 | 0.331 | 0.327 | 0.836 | > 10 | 0.969 | > 10
